Assay results published in the supplement of paper PMC11876631.
Positions count from the first letter of the chain named. Numbers in names are those of the source. ± gives the standard deviation of the averaged measurements. Laboratory Escherichia coli strains with one amino-acid change in an essential protein, pooled on minimal glucose agar with carbenicillin or gentamicin at twice the control MIC (plus kanamycin and chloramphenicol for the plasmids), 48 h. Fold change of barcode share against drug-free plates; higher = less susceptible. Active = above 20 in both replicates (the paper's putatively resistant). '<' = one read or none on drug, '>' = one read or none on a drug-free plate. Shares are relative, so most strains fall below 1 when a few take over. Listed are strains with at least 15 reads on both drug-free plates, and hits; most hits rest on fewer reference reads. Replicate rank correlation about 0.5. Edits are read from barcodes.

B1: ribF M51A (protein)
chain: MKLIRGIHNLSQAPQEGCVLTIGNFDGVHRGHRALLQGLQEEGRKRNLPVAVMLFEPQPLELFATDKAPARLTRLREKLRYLAECGVDYVLCVRFDRRFAALTAQNFISDLLVKHLRVKFLAVGDDFRFGAGREGDFLLLQKAGMEYGFDITSTQTFCEGGVRISSTAVRQALADDNLALAESLLGHPFAISGRVVHGDELGRTIGFPTANVPLRRQVSPVKGVYAVEVLGLGEKPLPGVANIGTRPTVAGIRQQLEVHLLDVAMDLYGRHIQVVLRKKIRNEQRFASLDELKAQIARDELTAREFFGLTKPA
B2: ribF M51W (protein)
chain: B1 chain with A51W
B3: ribF M51Q (protein)
chain: B1 chain with A51Q
B4: ribF M51D (protein)
chain: B1 chain with A51D
B5: ribF V52A (protein)
chain: B1 chain with A51M, V52A
B6: ribF V52W (protein)
chain: B1 chain with A51M, V52W
B7: ribF V52Q (protein)
chain: B1 chain with A51M, V52Q
B8: ribF V52D (protein)
chain: B1 chain with A51M, V52D
B9: ribF V52P (protein)
chain: B1 chain with A51M, V52P
B10: ribF M53A (protein)
chain: B1 chain with A51M, M53A
B11: ribF M53W (protein)
chain: B1 chain with A51M, M53W
B12: ribF M53Q (protein)
chain: B1 chain with A51M, M53Q
B13: ribF M53D (protein)
chain: B1 chain with A51M, M53D
B14: ribF M53P (protein)
chain: B1 chain with A51M, M53P

molecular target: Escherichia coli (laboratory strain); assay: barcode share on antibiotic plates over drug-free plates; higher = less susceptible; settings: antibiotic: carbenicillin; 2× MIC (3.1 µg/mL)
Description: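 A pool of E. coli strains, each edited to carry one amino-acid change in an essential protein, was grown for 48 h on minimal glucose agar with or without antibiotic; strain barcodes were sequenced; mean of two replicates.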

Protein | fold change of barcode share
B1 | 0.313 ± 0.091
B2 | 0.279 ± 0.12
B3 | 0.283 ± 0.064
B4 | 0.856 ± 0.02
B5 | 0.25 ± 0.12
B6 | 0.484 ± 0.15
B7 | 0.347 ± 0.099
B8 | 0.358 ± 0.024
B9 | 1.14 ± 0.056
B10 | 0.368 ± 0.15
B11 | 0.33 ± 0.023
B12 | 0.3 ± 0.022
B13 | 1 ± 0.48
B14 | 2.32 ± 0.53

same assay, conditions: antibiotic: gentamicin; 2× MIC (MIC 0.45 µg/mL)

Protein | fold change of barcode share
B1 | 0.00466 ± 0.0031
B2 | 0.121 ± 0.17
B3 | 0.0052 ± 0.0042
B4 | 110 ± 140
B5 | 0.0253 ± 0.02
B6 | 229 [active]
B7 | 0.0779 ± 0.047
B8 | 0.105 ± 0.11
B9 | 200 [active]
B10 | 0.00915 ± 0.0043
B11 | 0.0119 ± 0.014
B12 | 0.0207 ± 0.011
B13 | 12.9 ± 5.8
B14 | 258 [active]
